Data taken from PMC4336329 (PLoS ONE, 2015).
Out of some 310,000 compounds screened, about 14,000 (4.5%) showed an effect of 50% or more. The effect is printed as a negative number. This is one part of the list.

molecular target: human ether-à-go-go-related gene (hERG) potassium channel (human, UniProt Q12809); assay: primary screen, population patch clamp on CHO cells stably expressing hERG
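Also: peak tail current of the secondary pulse compared with the same well before compound.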

human ether-à-go-go-related gene (hERG) potassium channel, sequence (Q12809 whole entry, looked up): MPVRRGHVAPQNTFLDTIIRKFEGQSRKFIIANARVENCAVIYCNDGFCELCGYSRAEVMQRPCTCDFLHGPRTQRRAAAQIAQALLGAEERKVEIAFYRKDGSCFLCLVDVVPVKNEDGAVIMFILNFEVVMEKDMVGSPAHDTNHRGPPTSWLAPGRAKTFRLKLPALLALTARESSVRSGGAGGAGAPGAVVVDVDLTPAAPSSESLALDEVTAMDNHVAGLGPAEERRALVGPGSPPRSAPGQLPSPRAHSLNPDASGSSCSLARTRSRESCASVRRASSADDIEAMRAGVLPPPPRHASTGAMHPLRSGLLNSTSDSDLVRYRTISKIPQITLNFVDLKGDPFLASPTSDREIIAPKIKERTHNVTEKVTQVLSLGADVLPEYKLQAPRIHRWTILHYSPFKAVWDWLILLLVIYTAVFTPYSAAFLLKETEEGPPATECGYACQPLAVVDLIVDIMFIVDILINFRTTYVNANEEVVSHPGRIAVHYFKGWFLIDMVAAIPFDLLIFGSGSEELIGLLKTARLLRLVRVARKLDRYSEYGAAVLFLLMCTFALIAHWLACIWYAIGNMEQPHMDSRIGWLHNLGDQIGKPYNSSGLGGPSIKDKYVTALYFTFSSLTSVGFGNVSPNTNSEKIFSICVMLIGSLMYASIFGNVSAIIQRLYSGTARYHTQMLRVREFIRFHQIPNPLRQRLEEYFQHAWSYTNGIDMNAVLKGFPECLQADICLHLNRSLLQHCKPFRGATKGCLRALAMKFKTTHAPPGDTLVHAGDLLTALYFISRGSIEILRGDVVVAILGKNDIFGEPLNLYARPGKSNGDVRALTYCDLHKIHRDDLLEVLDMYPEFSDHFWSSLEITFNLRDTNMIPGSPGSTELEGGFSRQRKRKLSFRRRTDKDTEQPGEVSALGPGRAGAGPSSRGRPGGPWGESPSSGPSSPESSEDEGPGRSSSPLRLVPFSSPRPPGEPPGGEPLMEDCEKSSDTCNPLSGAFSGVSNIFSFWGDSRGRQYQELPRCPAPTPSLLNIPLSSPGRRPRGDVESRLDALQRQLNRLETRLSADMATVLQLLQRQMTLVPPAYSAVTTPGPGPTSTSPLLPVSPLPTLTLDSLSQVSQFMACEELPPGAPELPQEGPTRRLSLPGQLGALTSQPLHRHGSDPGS

SMILES	hERG current change (%, negative = inhibition) at 10uM
COCCn1c(SCC(=O)Nc2cccnc2Cl)nc2cc(Cl)ccc2c1=O	-29.6%
COCCCN(Cc1ccco1)C(=O)Cn1ncc2c([nH]c3ccccc32)c1=O	-24.1%
OCCC1CN(Cc2ccc3ncccc3c2)CCN1Cc1ccccc1 (centres unmarked)	-14.8%
Cc1ccc(-n2ncc3c(SCc4ccccc4)ncnc32)cc1	15.2%
COc1ccc(Nc2ccc(S(=O)(=O)N3CCCCC3)cc2[N+](=O)[O-])cc1	2.22%
CCOC(=O)c1cnc2c(OC)cccc2c1Nc1ccc2c(c1)OCCO2	-56.3%
NC(=O)c1cc2n(n1)C(C(F)(F)F)CC(c1ccco1)N2 (centres unmarked)	-7.54%
COc1ccc(C(=O)N/N=C/c2cc(Br)ccc2O)cc1OC	8.67%
Cc1cccc(N2CCN(C(=O)c3cccc(N4C(=O)C5C6C=CC(C6)C5C4=O)c3)CC2)c1C (centres unmarked)	4.35%
O=C(O)Cn1nc2ccccc2n1	27.9%
CC1=NN(C(N)=S)C(=O)C1N=Nc1c(C)cc(C)cc1C (centres unmarked)	20.8%
O=C(NC1CCCCC1)C(c1ccc(F)cc1)N(Cc1cccs1)C(=O)CN1C(=O)c2ccccc2S1(=O)=O (centres unmarked)	10.9%
CC(NC(=O)COC(=O)/C=C/c1ccc([N+](=O)[O-])cc1)c1ccccc1 (centres unmarked)	4.05%
Cc1oc2ccc(OC(=O)N(C)C)cc2c1C(=O)OC(C)C	-11.8%
CC(C)CN(CC(C)C)CC(O)COc1ccccc1Br.Cl (centres unmarked)	-28.4%
O=C1CSc2ccc(S(=O)(=O)NCc3ccc(F)cc3)cc2N1	-10.8%
O=S(=O)(/N=C(/Nc1cccc2ccccc12)c1ccccc1)c1ccc(F)cc1	17.1%
COc1cccc(NS(=O)(=O)c2cc(C)ccc2OC)c1	14.7%
COc1ccc(/C=C2\SC(=S)N(CCCC(=O)Nc3ccc(O)cc3)C2=O)cc1	-1.7%
O=C(O)C1CCN(c2nc(-c3ccccc3)c3cc(Br)ccc3n2)CC1	2.45%
CCOC(=O)C1C(c2ccc(O)c(OC)c2)NC(=S)NC1(O)C(F)(F)F (centres unmarked)	1.84%
O=C(CSc1nncs1)NC(=O)NCc1ccccc1	4.47%
FCCCOc1ccc(-c2ccnc3ncnn23)cc1	7.21%

SMILES	hERG current change (%, negative = inhibition) at 10uM
COc1cccc(-c2ccc(NC(=O)C3CCCN(Cc4cnn(C)c4)C3)cc2)c1 (centres unmarked)	-37%
Cc1cc2c(=O)n(CC(=O)NCC(=O)N3CCN(Cc4ccccc4)CC3)cnc2s1	8.01%
COc1ccccc1Oc1ncnc2c1oc1ccccc12	8.62%
O=c1[nH]c(C2CCCN(S(=O)(=O)c3cccc(Cl)c3)C2)nc2c1nnn2Cc1ccc2c(c1)OCCO2 (centres unmarked)	10.9%
O=C(NCN1CCOCC1)c1cnccn1	16.4%
COc1ccc(NC(=O)c2oc3ccccc3c2NC(=O)C2CC2)c(OC)c1	14.5%
FC(F)Sc1ccc(NC(=S)NCC2CCCCC2)cc1	4.42%
Cc1cccc(N2CCN(C(=O)c3ccccc3OCc3c(C)noc3C)CC2)c1C	-37.6%
Cc1nn(Cc2ccc(Cl)cc2)c(C)c1NC(=O)/C=C/c1cnn(C)c1	-17%
CCN1CN(CCc2ccccc2)CNC1=S	5.61%
Cc1cc(C)c(-n2c(C)cc(/C=C3/NC(=O)NC3=O)c2C)c(C)c1	-9.75%
COC(=O)c1ccc(-c2noc(CN(C)CC3CCCCO3)n2)cc1 (centres unmarked)	11.3%
COc1cc(/C=C/C(=O)NC2CCCCC2)cc(OC)c1OC	6.84%
O=C(CCN1C(=O)C2C3C=CC(C3)C2C1=O)Nc1ccccn1 (centres unmarked)	1.18%
O=C(c1cc(-c2cccc(Cl)c2)on1)N1CCN(c2ccccc2)CC1	5.78%
CC1CCN(S(=O)(=O)c2cccc(-c3cn4cc(Cl)ccc4n3)c2)CC1	-5.86%
O=C(CSc1nnc(-c2ccncc2)n1Cc1ccco1)Nc1nccs1	-27%
CC(=O)Nc1ccc(Nc2cc(C(C)C)nc3c(-c4ccccc4)c(C)nn23)cc1	8.28%
O=C(CSc1nnc(CCCN2C(=O)c3cccc4cccc(c34)C2=O)n1-c1ccccc1)N1CCCCC1	-38.2%
COc1cccc(-c2nc(CS(=O)(=O)CC(=O)NCCCN3C(C)CCCC3C)c(C)o2)c1 (centres unmarked)	4.82%
COc1ccc(CCNC(=O)C(=O)NCC2CCCN2S(=O)(=O)c2cc(C)ccc2C)cc1 (centres unmarked)	-26.9%
COc1ccc(C(=O)N2CCCN(C)CC2)c(OC)c1	-5.24%
O=C(Nc1nc2cc3c(cc2s1)OCCO3)c1ccc([N+](=O)[O-])o1	-8.07%

SMILES	hERG current change (%, negative = inhibition) at 10uM
COc1ccc(OC)c(N2Cc3ccccc3C2)c1	12%
Cc1cccc(N(CC(=O)NCCSCc2ccccc2)S(C)(=O)=O)c1C	-17.4%
COc1cccc(-c2sc3ccc(OC)cc3c2C#CCCO)c1	-7.87%
CCN1C(=O)C(C)S/C1=N\S(=O)(=O)c1ccc(Cl)s1 (centres unmarked)	13.5%
O=C(N=C1SC2CS(=O)(=O)CC2N1c1ccc(F)cc1F)C1CC1 (centres unmarked)	2.47%
COCCCN1C(=O)c2ccc(C(=O)OCC(=O)NCc3ccccc3OC)cc2C1=O	-3.94%
COc1ccccc1N1CCN(C2CCCN(C(=O)CC(F)(F)F)C2)CC1 (centres unmarked)	12.4%
O=C(Nc1cccc(Cl)c1)Nc1ccccc1-n1ccnc1	-18.4%
Cc1cc(C)c(-n2c(SCCS(=O)(=O)c3ccc(F)cc3)n[nH]c2=O)c(C)c1	5.41%
O=C1N(c2ccc(Cl)cc2)C(c2cccnc2)N2CCCN12 (centres unmarked)	8.15%
NC(=O)C1CCN(C(=O)c2cc3n(n2)C(C(F)(F)F)CC(c2ccco2)N3)CC1 (centres unmarked)	14.8%
O=C(N/N=C/c1c(O)n(CCc2ccccc2)c(=O)[nH]c1=O)c1ccccc1	4.38%
COc1cccc(NS(=O)(=O)c2ccc(Br)s2)c1	-12.6%
Cc1nc(NC(=O)CSc2nnc(-c3ccc4c(c3)OCO4)o2)c(Cl)cc1Cl	-17.2%
CCC(C)Nc1nc(N)c([N+](=O)[O-])c(N2CCCCCC2)n1 (centres unmarked)	10.1%
O=C(CCN1C(=O)c2ccccc2C1=O)NCc1ccncc1	-4.61%
CC(C)NCCOCCOc1ccc(Cl)cc1Br.O=C(O)C(=O)O	-32.2%
CCOc1ccc(C(=O)NCC(=O)N2CCN(C/C=C/c3ccccc3)CC2)cc1OCC	-41.7%
CC1=Nc2ccccc2N=C(NC(=O)CN2CCN(c3ccc(F)cc3)CC2)C1c1ccccc1 (centres unmarked)	-0.775%
Cc1ccc(NC(=O)CN2CCN(Cc3ccccc3)CC2)c(Br)c1.Cl	-72.5%
Cn1c2ccc(F)cc2c2ncn(CC3CCCO3)c(=O)c21 (centres unmarked)	6.05%
CCOC(=O)c1ccc(NC(=O)C(C)Sc2nc(O)c(-c3ccccc3)c(=O)[nH]2)cc1 (centres unmarked)	23.8%
Cc1ccc(-c2cc(C(=O)N3CCCc4ccccc43)no2)cc1	-75.6%

SMILES	hERG current change (%, negative = inhibition) at 10uM
Cc1cccc(NC(=S)NNC(=O)c2cccc([N+](=O)[O-])c2)c1	26.4%
COc1ccc(N2CC(NC(=O)c3ccc4ccccc4c3)CC2=O)cc1OC (centres unmarked)	-24%
CN(Cc1c[nH]c2ccccc12)C1CCCCC1	-3.54%
O=C1c2cccc3cccc(c23)C(=O)N1c1ccccn1	-0.425%
CSc1nc2cc(Oc3cccc(Cl)c3Cl)c(Cl)cc2[nH]1	8.71%
CCOc1ccc(C(=O)/C=C/c2cc(OC)c(OC)c(OC)c2)cc1	-12.6%
CC(=O)c1cccc(NC(=O)N2CCCc3ccccc32)c1	-11.8%
C=CCSC1=NN2CCS(=O)(=O)N=C2S1	13.4%
O=C(CSc1nncs1)N1c2ccccc2Sc2ccccc21	6.14%
CC(C)Cn1c(SCc2nc3ccccc3c(=O)[nH]2)nc2ccccc2c1=O	-0.541%
CC(NC(=O)c1ccc(F)cc1)c1ccccc1 (centres unmarked)	-6.64%
CCc1ccc(C(=O)COC(=O)c2ccco2)cc1	9.18%
CCOC(=O)C1CCCN(Cc2ccc(OC)cc2OC)C1 (centres unmarked)	-52.7%
C/C(=N\NC(N)=O)c1c(F)cccc1F	9.8%
O=C(NC1CCCc2ccccc21)c1cccc(S(=O)(=O)N2CCOCC2)c1 (centres unmarked)	29.4%
O=C1CCCN2N=C(SCC(=O)Nc3nccs3)SC2=N1	4.77%
CN(Cc1ncc[nH]1)C(=O)c1cc(COc2c(F)cccc2F)on1	-4.68%
COCCn1c(=S)[nH]c2sc3c(c2c1=O)CCC(C)C3 (centres unmarked)	2.51%
Cc1ccc(Nc2nc(/N=C/N(C)C)n[nH]2)cc1C	-12.5%
Cc1nc2c(cc1C#N)C(=O)c1ccccc1-2	-13.2%
